From patent US9695132B2, “Heteroaryl compounds and uses thereof” (Celgene CAR LLC, priority 2013, dated 2017)

Target: FGFR4 (Homo sapiens (Human), UniProt P22455)
Experiment: Protein mass modification assay (MALDI, intact FGFR4)
Type: binding
Conditions: method a: FGFR4 intact protein from SignalChem; 10-fold excess of compound, 60 min

## C=CC(=O)Nc1cc(N2CCN(CCOC)CC2)ccc1Nc1ncc2c(n1)N(Cc1cccc(NC(=O)CC)c1)C(=O)N(c1cc(OC)cc(OC)c1)C2 [Compound I-9]
  MS FGFR4 (mass modification): F (mass modification of 31-69%)

## C=CCCN1C(=O)N(c2cc(OC)cc(OC)c2)Cc2cnc(Nc3ccccc3NC(=O)C=C)nc21 [Compound I-57]
  MS FGFR4 (mass modification): F (mass modification of 31-69%)
